Read counts are not given, so values of variants with three or more changes are uncertain.
B1: LINE1-mini (parent)
chain: GGCAGAGCUCAACACAGCGUGGCAAAGUGGCUGUGGCUAGACUGCC

Variants of: B1
Assay: self-cleavage, relative activity (ratio to wild type); higher = more cleavage; in vitro, sequencing; the parent is a self-cleaving ribozyme

Variant | self-cleavage
C8G A12U C18U A24U A25G | 0
C8G A12U G35A | 0.3
C8G A14C G33C G44C | 0.02
C8G A14G A16U G44U | 0.02
C8G A14G C15G C18A G27A G29U G35C G44C | 0.18
C8G A14G C37A C42A G44C | 0.03
C8G A14G G17C G30A | 0.09
C8G A14U C31U | 0.01
C8G A14U G17U | 0.04
C8G A14U G40U | 0.03
C8G A16C A25G G27C U34G | 0.01
C8G A16C G29C | 0.14
C8G A16G C31G | 0.02
C8G A16G G21A U43C | 0.01
C8G A16G G27A G40U | 0.04
C8G A16G U43C C45A | 0.05
C8G A16U G17A A24G | 0.09
C8G A16U G19U U34C A41U | 0.01
C8G A24C G27U G33U G40C | 0.02
C8G A24C G27U U43A | 0.02
C8G A24C G35U C46A | 0.01
C8G A24G U28G U43G C45A | 0.07
C8G A24U G27U | 0.22
C8G A25C U43C | 0.02

Variant | self-cleavage
C8G A25U C42G | 0.06
C8G A25U C45U | 0.02
C8G A25U G44C | 0.1
C8G A26C G27A | 0.16
C8G A26U C31U | 0.06
C8G A26U C45A C46U | 0.02
C8G A26U G27C U28C C31G | 0.01
C8G A39U C42G C45U | 0
C8G C10A C15A | 0.05
C8G C10A C18A G29C | 0.01
C8G C10A C42G U43A | 0.02
C8G C10A C42U C46A | 0.03
C8G C10A G17U A41U C42A C45U | 0.01
C8G C10A G33C | 0.06
C8G C10A U20C A39U | 0
C8G C10G C13G C37G | 0.02
C8G C10G G44U | 0.02
C8G C10U C13U A16U G22A | 0.03
C8G C10U G17U C23U G35U G44C | 0.03
C8G C10U U34G G40C | 0
C8G C13A A14C C15U C45U | 0.15
C8G C13A A16U G33A | 0.06
C8G C13A C23A | 0.02
C8G C13A C23G C46G | 0.03

Variant | self-cleavage
C8G C13A G29U | 0.05
C8G C13G A14C A24G G36C U38A | 0.09
C8G C13G G21C | 0.04
C8G C13G G36C | 0.01
C8G C13U G27A | 0.13
C8G C13U G30C | 0.06
C8G C13U U28A | 0.14
C8G C15A A26C | 0.02
C8G C15A C31G | 0
C8G C15A C37G | 0
C8G C15A C42G | 0.03
C8G C15A G17A G21A G36U | 0.17
C8G C15A G19C | 0.03
C8G C15A U20A G22A C37G | 0.02
C8G C15U A16U G30C C31G C37U | 0.05
C8G C15U G29U C31A C46G | 0.17
C8G C18A G21U | 0.1
C8G C18A U38G C42U | 0.08
C8G C18G C23U G27U | 0.06
C8G C18U C31G | 0.01
C8G C18U G22C G36U | 0.04
C8G C23A G27C G40U | 0.06
C8G C23U U28C | 0.25
C8G C31A G35U | 0.02

Variant | self-cleavage
C8G C31A U32C G40A | 0.02
C8G C31A U32G C37A | 0.04
C8G C31G G33U A39G G40A C45U | 0
C8G C31U U32G C45A | 0.02
C8G C37A G40U | 0.2
C8G C37A U43C | 0.02
C8G C37U U38G | 0.01
C8G C45G C46A | 0.01
C8G G17A C18A G21U G22A | 0
C8G G17A C18U A41U | 0.01
C8G G17C G30A | 0.03
C8G G17U A24G C46U | 0.02
C8G G17U A25U | 0.03
C8G G17U C18G A26G G33U | 0.1
C8G G17U C46U | 0.03
C8G G19A C31U | 0.01
C8G G19C G21C G27U C37A | 0.02
C8G G19U A25U | 0.06
C8G G19U G29A C31A | 0.07
C8G G21C U32C | 0.04
C8G G21C U38A U43A | 0.12
C8G G21U G27U | 0.03
C8G G21U G36U | 0.07
C8G G21U G44C C45U | 0.08

Variant | self-cleavage
C8G G21U U43A C45U | 0.07
C8G G22A G27C | 0.02
C8G G22U G29C | 0.04
C8G G27A C31A U34A C46U | 0.03
C8G G27A C31U U32G G33U | 0.01
C8G G27C A39G G40U C42G | 0.01
C8G G27C A41U | 0.02
C8G G27C G30A C31A | 0.04
C8G G27C U28C G36U | 0.11
C8G G27U U34C | 0.07
C8G G29A G30A | 0.14
C8G G29A G30C U34C G36C C42A C45A | 0.01
C8G G30U G35U A39G | 0
C8G G33C A39U C42U | 0.04
C8G G33C U34A A39C | 0.03
C8G G33U G40A | 0.03
C8G G35U C45U | 0.03
C8G G35U G40U | 0.01
C8G G36A G44A | 0.04
C8G U9A C13A G35C | 0.08
C8G U9C C23G A24U G29A | 0.02
C8G U9C G21C A24C | 0.03
C8G U9G G22A A24G U32A | 0.01
C8G U9G G29U U32A A41U | 0.01

Variant | self-cleavage
C8G U20A G30C U34G A39U | 0
C8G U20A U43A | 0.02
C8G U20C A25G G30C | 0.23
C8G U20C A39C | 0.03
C8G U20C U34A G44C | 0.02
C8G U20G C31A | 0.03
C8G U32C C45G | 0.08
C8G U38C C46G | 0.05
C8U A11C A25G | 0
C8U A11C C15U G17A C37G C42G | 0.01
C8U A11C G19A U20C A25U A39C | 0
C8U A11C G44A | 0.02
C8U A11C U32A G36C | 0.01
C8U A11G U20G | 0.02
C8U A11G U20G G21U G22A G35C | 0.02
C8U A11U A16G C42A | 0.01
C8U A11U C13G G19A G40U C42G | 0.01
C8U A11U C15U G33A C37G U38C G40A | 0.01
C8U A11U C31A | 0.01
C8U A11U C45A | 0.02
C8U A11U G29U | 0.02
C8U A11U U38G C46A | 0.02
C8U A12C C15A G35U | 0.01
C8U A12G A14C C46G | 0.04

Variant | self-cleavage
C8U A12G A14G C45A | 0.01
C8U A12G C13A G30A | 0.03
C8U A12G C23A | 0.04
C8U A12G C46G | 0.12
C8U A12U A41U | 0.46
C8U A12U G27A G33C | 0.19
C8U A12U G33C | 0.01
C8U A12U U28C G29U | 0.06
C8U A14C C18U U28A | 0.01
C8U A14G A16G | 0.07
C8U A14G G19U G35A | 0.03
C8U A14G G27A | 0.32
C8U A14G U32C | 0.09
C8U A14U C31U U38C | 0.05
C8U A14U G27U C31A | 0.06
C8U A16C G29A C31U G33C | 0.15
C8U A16C U20C G27U | 0.08
C8U A16G A24U C45A | 0.03
C8U A16G A25C G27A G36C | 0.08
C8U A16G C18A G22C | 0.07
C8U A16G C23A | 0.1
C8U A16G G21U U28A C31A | 0.04
C8U A16G G40A | 0.16

Reference: the RNAGym collection of RNA variant scans (doi:10.7554/elife.90254)
